Source: patent publication US10100056B2, “SHIP1 modulators and methods related thereto” (Aquinox Pharmaceuticals (Canada) Inc., priority 2013, dated 2018)
At least one structure is not confirmed: it was looked up by name or label, or the drawing left a doubt.

molecular target: T1, His-hSHIP1 enzyme (Homo sapiens, UniProt Q92835); experiment: His-hSHIP1 activity (phosphatase assay, IP4 substrate, Biomol Green); format: biochemical; set-up: key: +++: higher than reference or reference - 15%; ++: reference - 16% to reference - 30%; +: reference - 31% or lower; −: inhibitor; details: second approach: ratio of initial velocities IP4 25/250 μM compared with reference compound; values without asterisk
T1 construct: His
T1 sequence (Q92835 1-1189): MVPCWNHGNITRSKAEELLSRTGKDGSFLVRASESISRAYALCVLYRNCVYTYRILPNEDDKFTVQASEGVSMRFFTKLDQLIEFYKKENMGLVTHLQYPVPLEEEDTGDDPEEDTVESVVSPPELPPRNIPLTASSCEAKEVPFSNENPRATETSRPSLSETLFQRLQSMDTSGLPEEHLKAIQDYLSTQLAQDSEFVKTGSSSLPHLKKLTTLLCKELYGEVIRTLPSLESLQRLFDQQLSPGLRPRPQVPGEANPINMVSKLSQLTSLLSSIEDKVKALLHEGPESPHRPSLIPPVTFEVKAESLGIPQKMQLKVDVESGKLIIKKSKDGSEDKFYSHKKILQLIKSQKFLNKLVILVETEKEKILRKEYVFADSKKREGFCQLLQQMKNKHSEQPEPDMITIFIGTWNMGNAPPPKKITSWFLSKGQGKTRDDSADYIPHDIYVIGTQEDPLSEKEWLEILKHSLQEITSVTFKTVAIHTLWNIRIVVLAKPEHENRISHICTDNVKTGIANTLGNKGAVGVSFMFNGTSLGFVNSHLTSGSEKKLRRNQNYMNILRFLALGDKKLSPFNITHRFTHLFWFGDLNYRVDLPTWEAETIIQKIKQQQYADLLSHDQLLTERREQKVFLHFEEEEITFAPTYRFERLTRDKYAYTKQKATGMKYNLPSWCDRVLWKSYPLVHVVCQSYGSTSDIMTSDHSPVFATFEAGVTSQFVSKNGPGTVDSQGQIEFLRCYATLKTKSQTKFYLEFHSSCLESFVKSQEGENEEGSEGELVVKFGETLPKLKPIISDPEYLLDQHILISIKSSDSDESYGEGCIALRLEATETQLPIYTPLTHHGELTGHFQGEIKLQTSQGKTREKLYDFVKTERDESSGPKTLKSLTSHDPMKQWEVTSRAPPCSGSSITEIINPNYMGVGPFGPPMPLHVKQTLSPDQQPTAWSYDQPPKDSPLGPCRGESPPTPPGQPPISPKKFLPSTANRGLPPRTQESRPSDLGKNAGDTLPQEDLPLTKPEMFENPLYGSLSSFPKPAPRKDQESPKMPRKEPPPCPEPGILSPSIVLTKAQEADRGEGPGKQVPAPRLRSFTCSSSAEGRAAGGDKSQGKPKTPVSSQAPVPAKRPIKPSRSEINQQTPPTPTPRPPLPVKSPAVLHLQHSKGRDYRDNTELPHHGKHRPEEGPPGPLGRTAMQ
Experimental: Test compounds are dissolved in 95% ethanol to form stock solutions. Before screening, the stock solutions are diluted with Phosphatase Assay Buffer (20 mM Tris-HCL, 10 mM MgCl2 pH 7.5, 0.02% Tween 20) to form working assay solutions that contain 10% ethanol. The assay is carried out on 96-well microtiter plates using a modified procedure of that reported by Ong et al., Blood 110, 1942-1949, 2007 and Yang et al., Org Lett 7, 1073-1076, 2005, both of which references are incorporated herein by reference in their entirety.
Data were generated by one of two variant methods. Test compounds are screened by one of two approaches described as follows. In the first approach, each reaction contains 5 μL of His-hSHIP1 enzyme (5-20 ng), 10 μL of the substrate, 1,3,4,5-inositol tetrakisphosphate (IP4; 50 μM final), 5 μL of Phosphatase Assay Buffer, and 5 µL of test compound at various concentrations in 10% ethanol (0-300 μM final). Control blanks are also prepared by replacing His-hSHIP1 enzyme, IP4, or test compounds with Phosphatase Assay Buffer. After adding the reaction components in a 96-well microtiter plate on ice, the reaction is mixed by briefly shaking the plate vigorously. The reaction is then incubated at 37° C. for 15 min with gentle shaking followed by addition of 100 μL of Biomol Green Reagent (BIOMOL, PA, USA) to terminate the reaction. The free phosphate released from IP4 by His-hSHIP1 binds to the Biomol Green Reagent, which turns the dye to green color. After incubating the mixture for 20 min at room temperature for color development, the absorbance is read with SpectraMax Plus 96-well plate reader (Molecular Devices, Sunnyvale, Calif., USA) at a wavelength of 650 nm.
In the second approach, a master mix is prepared that contains 50 μL of His-hSHIP1 enzyme (0.4-1.6 ng/μL final), 25 μL of the substrate, IP4 (25 or 250 μM final), and 50 μL of test compound in 3.3% ethanol (100 μL final). Control blanks are also prepared by replacing His-hSHIP1 enzyme, IP4, or test compounds with Phosphate Assay Buffer. […] Each reaction component is preincubated at 37° C. for 30 min before adding to a 96-well microtiter plate. The master mix is then incubated at 37° C. At time 0, 20, and 30 min, 25 μL of the master mix is removed and transferred to a new 96-well microtiter plate, to which 100 μL of Biomol Green Reagent is added to stop the reaction. After incubating the mixture for 20 min at room temperature for color development, the absorbance is read with SpectraMax Plus 96-well plate reader at a wavelength of 650 nm. Phosphate released is plotted against time to calculate the initial velocities (i.e., slope of the graph) at each IP4 concentration. The initial velocities are baseline corrected and the ratio of initial velocities (IP425/IP4250) is calculated and used to rate the test compounds.

Structure (SMILES) | Scoring, Approach 2 (Initial velocity Ratio)
CC1(C)CCC2=C1CC[C@H]([C@@]1(C)CC[C@H](O)C[C@@H]1CO)[C@H]2CNCc1ccc[nH]1 [Cpd. No. 6, (1S,3S,4R)-4-((4R,5S)-4-(((1H-pyrrol-2-yl)methylamino)methyl)-1,1-dimethyl-2,3,4,5,6,7-hexahydro-1H-inden-5-yl)-3-(hydroxymethyl)-4-methylcyclohexanol] | ++
C=C1CC[C@H]2[C@H](O)[C@@H]([C@@]3(C)CC[C@H](O)C[C@@H]3CCN3CCCC3)CC[C@]12C [Cpd. No. 11, (3aR,4R,5R,7aS)-5-((1S,2S,4S)-4-hydroxy-1-methyl-2-(2-(pyrrolidin-1-yl)ethyl)cyclohexyl)-7a-methyl-1-methyleneoctahydro-1H-inden-4-ol] | +
C=C1CC[C@H]2[C@H](CCN)[C@@H]([C@@]3(C)CC[C@H](O)C[C@@H]3CO)CC[C@]12C [Cpd. No. 29, (1S,3S,4R)-4-((3aS,4R,5S,7aS)-4-(2-aminoethyl)-7a-methyl-1-methyleneoctahydro-1H-inden-5-yl)-3-(hydroxymethyl)-4-methylcyclohexanol] | +
C=C1CC[C@H]2[C@H](Cn3ccc4ccccc43)[C@@H]([C@@]3(C)CC[C@H](O)C[C@@H]3CO)CC[C@]12C [Cpd. No. 30, (1S,3S,4R)-4-((3aS,4R,5S,7aS)-4-((1H-indol-1-yl)methyl)-7a-methyl-1-methyleneoctahydro-1H-inden-5-yl)-3-(hydroxymethyl)-4-methylcyclohexanol] | ++
C=C1CC[C@H]2[C@H](CN3CCc4ccccc43)[C@@H]([C@@]3(C)CC[C@H](O)C[C@@H]3CO)CC[C@]12C [Cpd. No. 31, (1S,3S,4R)-3-(hydroxymethyl)-4-((3aS,4R,5S,7aS)-4-(indolin-1-ylmethyl)-7a-methyl-1-methyleneoctahydro-1H-inden-5-yl)-4-methylcyclohexanol] | −
C=C1CC[C@H]2[C@H](CNCc3cc(OC)cc(OC)c3)[C@@H]([C@@]3(C)CC[C@H](O)C[C@@H]3CO)CC[C@]12C [Cpd. No. 32, (1S,3S,4R)-4-((3aS,4R,5S,7aS)-4-((3,5-dimethoxybenzylamino)methyl)-7a-methyl-1-methyleneoctahydro-1H-inden-5-yl)-3-(hydroxymethyl)-4-methylcyclohexanol] | +++
C=C1CC[C@H]2[C@H](CNCc3ccc4c(c3)OCO4)[C@@H]([C@@]3(C)CC[C@H](O)C[C@@H]3CO)CC[C@]12C [Cpd. No. 34, (1S,3S,4R)-4-((3aS,4R,5S,7aS)-4-((benzo[d][1,3]dioxol-5-ylmethylamino)methyl)-7a-methyl-1-methyleneoctahydro-1H-inden-5-yl)-3-(hydroxymethyl)-4-methylcyclohexanol] | +
C=C1CC[C@H]2[C@H](Cn3cnc4c(N)ncnc43)[C@@H]([C@@]3(C)CC[C@H](O)C[C@@H]3CO)CC[C@]12C [Cpd. No. 35, (1S,3S,4R)-4-((3aS,4R,5S,7aS)-4-((6-amino-9H-purin-9-yl)methyl)-7a-methyl-1-methyleneoctahydro-1H-inden-5-yl)-3-(hydroxymethyl)-4-methylcyclohexanol] | ++
C=C1CC[C@H]2[C@H](CNCc3ccc(F)cc3C)[C@@H]([C@@]3(C)CC[C@H](O)C[C@@H]3CO)CC[C@]12C [Cpd. No. 38, (1S,3S,4R)-4-((3aS,4R,5S,7aS)-4-((4-fluoro-2-methylbenzylamino)methyl)-7a-methyl-1-methyleneoctahydro-1H-inden-5-yl)-3-(hydroxymethyl)-4-methylcyclohexanol] | ++
C=C1CC[C@H]2[C@H](O)[C@@H]([C@@]3(C)CC[C@H](O)C[C@@H]3CCN3CCN(C)CC3)CC[C@]12C [Cpd. No. 48, (3aR,4R,5R,7aS)-5-((1S,2S,4S)-4-hydroxy-1-methyl-2-(2-(4-methylpiperazin-1-yl)ethyl)cyclohexyl)-7a-methyl-1-methyleneoctahydro-1H-inden-4-ol] | +
C=C1CC[C@H]2[C@H](O)[C@@H]([C@@]3(C)CC[C@H](O)C[C@@H]3CCn3ccnc3)CC[C@]12C [Cpd. No. 50, (3aR,4R,5R,7aS)-5-((1S,2S,4S)-2-(2-(1H-imidazol-1-yl)ethyl)-4-hydroxy-1-methylcyclohexyl)-7a-methyl-1-methyleneoctahydro-1H-inden-4-ol] | +
C=C1CC[C@H]2[C@H](O)[C@@H]([C@@]3(C)CC[C@H](O)C[C@@H]3CCOc3ccccn3)CC[C@]12C [Cpd. No. 57, (3aR,4R,5R,7aS)-5-((1S,2S,4S)-4-hydroxy-1-methyl-2-(2-(pyridin-2-yloxy)ethyl)cyclohexyl)-7a-methyl-1-methyleneoctahydro-1H-inden-4-ol] | −
CCCCC(=O)NC[C@@H]1[C@@H]([C@@]2(C)CC[C@H](O)C[C@@H]2CO)CC[C@]2(C)C=CC[C@@H]12 [Cpd. No. 59, N-(((3aR,6S,7R,7aS)-6-((1R,2S,4S)-4-hydroxy-2-(hydroxymethyl)-1-methylcyclohexyl)-3a-methyl-3a,4,5,6,7,7a-hexahydro-1H-inden-7-yl)methyl)pentanamide] | ++
